Laboratory results as given in the supplement of paper PMC8728848.
The other results are listed elsewhere or left out.

Legend:
Experiment in all cases: glycan array binding signal (z-score within array); higher = stronger binding
Conditions in all cases: glycan notation: IUPAC condensed, linker removed
[1] = biological target: Gal6S(b1-4)GlcNAc
Method in brief: (§1)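 The binding signal is a Z-score computed within each array and averaged over linkers. Arrays of the same protein sequence at different concentrations or buffers were also averaged together. Data originate from 3228 arrays in the Consortium for Functional Glycomics database, kept only where the protein sequence was available.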

[2] = biological target: Gal6S(b1-4)GlcNAc6S
Method in brief: as §1

[3] = biological target: GalNAc(a1-3)Gal
Method in brief: as §1

[4] = biological target: GalNAc(a1-3)GalNAc
Method in brief: as §1

[5] = biological target: GalNAc(a1-3)GalNAc(a1-3)Gal(a1-4)Gal(b1-4)GlcNAc
Method in brief: as §1

[6] = biological target: GalNAc(a1-3)GalNAc(b1-3)Gal(a1-4)Gal(b1-4)Glc
Method in brief: as §1

[7] = biological target: GalNAc(b1-3)Gal
Method in brief: as §1

[8] = biological target: GalNAc(b1-3)Gal(a1-4)Gal(b1-4)GlcNAc
Method in brief: as §1

[9] = biological target: GalNAc(b1-3)Gal(a1-4)Gal(b1-4)GlcNAc(b1-3)Gal(b1-4)Glc
Method in brief: as §1

[10] = biological target: GalNAc(b1-3)Gal(a1-6)Gal(b1-4)Glc
Method in brief: as §1

[11] = biological target: GalNAc(b1-3)GalNAc
Method in brief: as §1

[12] = biological target: GalNAc(b1-3)GlcNAc
Method in brief: as §1

[13] = biological target: GalNAc(b1-4)Gal(b1-4)Glc
Method in brief: as §1

[14] = biological target: GalNAc(b1-4)GlcNAc
Method in brief: as §1

[15] = biological target: GalNAc(b1-4)GlcNAc(b1-2)Man
Method in brief: as §1

[16] = biological target: GalNAc(b1-4)GlcNAc(b1-2)Man(a1-3)[GalNAc(b1-4)GlcNAc(b1-2)Man(a1-6)]Man(b1-4)GlcNAc(b1-4)GlcNAc
Method in brief: as §1

[17] = biological target: GalNAc(b1-4)GlcNAc(b1-3)GalNAc(b1-4)GlcNAc
Method in brief: as §1

[18] = biological target: GalNAc(b1-4)GlcNAc6S
Method in brief: as §1

[19] = biological target: GalNAc(b1-6)GalNAc
Method in brief: as §1

[20] = biological target: GalNAc3S(b1-4)GlcNAc
Method in brief: as §1

[21] = biological target: GalNAc3S(b1-4)GlcNAc3S
Method in brief: as §1

[22] = biological target: GalNAc3S(b1-4)[Fuc(a1-3)]GlcNAc
Method in brief: as §1

[23] = biological target: GalNAc4S6S(b1-4)GlcNAc
Method in brief: as §1

[24] = biological target: GalNAc6S(b1-4)GlcNAc
Method in brief: as §1

[25] = biological target: Glc(a1-4)Glc
Method in brief: as §1

[26] = biological target: Glc(a1-4)Glc(a1-4)Glc(a1-4)Glc
Method in brief: as §1

[27] = biological target: Glc(a1-6)Glc(a1-6)Glc
Method in brief: as §1

[28] = biological target: Glc(a1-6)Glc(a1-6)Glc(a1-6)Glc
Method in brief: as §1

[29] = biological target: Glc(b1-4)Glc
Method in brief: as §1

[30] = biological target: Glc(b1-6)Glc
Method in brief: as §1

[31] = biological target: GlcA(b1-3)Gal
Method in brief: as §1

[32] = biological target: GlcA(b1-3)GlcNAc
Method in brief: as §1

[33] = biological target: GlcA(b1-6)Gal
Method in brief: as §1

[34] = biological target: GlcA3S(b1-3)Gal(b1-4)GlcNAc(b1-2)Man
Method in brief: as §1

[35] = biological target: GlcA3S(b1-3)Gal(b1-4)GlcNAc(b1-3)Gal(b1-4)Glc
Method in brief: as §1

[36] = biological target: GlcNAc(a1-3)Gal(b1-4)GlcNAc
Method in brief: as §1

[37] = biological target: GlcNAc(a1-4)Gal(b1-3)GlcNAc
Method in brief: as §1

[38] = biological target: GlcNAc(a1-4)Gal(b1-4)GalNAc
Method in brief: as §1

[39] = biological target: GlcNAc(a1-4)Gal(b1-4)GlcNAc
Method in brief: as §1

[40] = biological target: GlcNAc(a1-4)Gal(b1-4)GlcNAc(b1-3)Gal(b1-4)Glc
Method in brief: as §1

[41] = biological target: GlcNAc(a1-4)Gal(b1-4)GlcNAc(b1-3)Gal(b1-4)GlcNAc
Method in brief: as §1

[42] = biological target: GlcNAc(a1-4)Gal(b1-4)GlcNAc(b1-3)Gal(b1-4)GlcNAc(b1-3)Gal(b1-4)GlcNAc
Method in brief: as §1

[43] = biological target: GlcNAc(a1-4)Gal(b1-4)GlcNAc(b1-3)Gal(b1-4)[Fuc(a1-3)]GlcNAc(b1-3)Gal(b1-4)[Fuc(a1-3)]GlcNAc
Method in brief: as §1

[44] = biological target: GlcNAc(a1-6)Gal(b1-4)GlcNAc
Method in brief: as §1

[45] = biological target: GlcNAc(b1-2)Gal(b1-3)GalNAc
Method in brief: as §1

B1: EEA (Euonymus europaeus) (protein)
chain: MASTIIATGPTYRVYCRAAPNYNMIVGKGVAFLAPIDETNELQYWYKDDTYSYIKDEAGLPAFSLVNKATGLTLKHSNHHPVPVKLVTYNPNVVDESVLWSQADDRGDGYSAIRSLTNPASHLEAAPLNDWSYNGAIIMGGVWIDAYNQQWKIEPHTG
glycan array binding signal (z-score) [1]: -0.262
glycan array binding signal (z-score) [2]: -0.097
glycan array binding signal (z-score) [3]: -0.079
glycan array binding signal (z-score) [4]: -0.281
glycan array binding signal (z-score) [5]: -0.242
glycan array binding signal (z-score) [6]: -0.248
glycan array binding signal (z-score) [7]: -0.178
glycan array binding signal (z-score) [8]: -0.231
glycan array binding signal (z-score) [9]: -0.221
glycan array binding signal (z-score) [10]: -0.238
glycan array binding signal (z-score) [11]: -0.228
glycan array binding signal (z-score) [12]: -0.142
glycan array binding signal (z-score) [13]: -0.155
glycan array binding signal (z-score) [14]: -0.032
glycan array binding signal (z-score) [15]: -0.164
glycan array binding signal (z-score) [16]: 0.509
glycan array binding signal (z-score) [17]: -0.269
glycan array binding signal (z-score) [18]: -0.177
glycan array binding signal (z-score) [19]: -0.239
glycan array binding signal (z-score) [20]: -0.18
glycan array binding signal (z-score) [21]: -0.156
glycan array binding signal (z-score) [22]: -0.1
glycan array binding signal (z-score) [23]: -0.234
glycan array binding signal (z-score) [24]: -0.213
glycan array binding signal (z-score) [25]: -0.178
glycan array binding signal (z-score) [26]: -0.168
glycan array binding signal (z-score) [27]: -0.214
glycan array binding signal (z-score) [28]: -0.092
glycan array binding signal (z-score) [29]: -0.234
glycan array binding signal (z-score) [30]: -0.165
glycan array binding signal (z-score) [31]: -0.19
glycan array binding signal (z-score) [32]: -0.185
glycan array binding signal (z-score) [33]: -0.277
glycan array binding signal (z-score) [34]: -0.194
glycan array binding signal (z-score) [35]: -0.179
glycan array binding signal (z-score) [36]: -0.151
glycan array binding signal (z-score) [37]: -0.169
glycan array binding signal (z-score) [38]: -0.127
glycan array binding signal (z-score) [39]: -0.158
glycan array binding signal (z-score) [40]: -0.238
glycan array binding signal (z-score) [41]: -0.197
glycan array binding signal (z-score) [42]: -0.24
glycan array binding signal (z-score) [43]: -0.079
glycan array binding signal (z-score) [44]: -0.245
glycan array binding signal (z-score) [45]: -0.138
